Test results as given in the RNAGym collection of RNA variant scans (doi:10.7554/elife.90254).
The source gives no read counts; variants with many changes may rest on few reads.

B1: LINE1-full (parent)
chain: UACGUAGGUGGUUUUCCCCUGAUAGUGCUAAGGGGGCCUGGAAGUUUGGACUGGGCAGAGCUCAACACAGCGUGGCAAAGUGGCUGUGGCUAGACUGCCUCUCUGGAUUCCUCGUCACUCAGCAGGGCAUCUCUGAGAGAAAUGCC

Variants of: B1
Assay: self-cleavage, relative activity (ratio to wild type); higher = more cleavage; in vitro, sequencing; the parent is a self-cleaving ribozyme

Variant | self-cleavage
U13C G72A U108C | 1.42
U13A A22U C99U | 0.24
U15C C101U A142G | 1.73
U14A C51A A69G U143A | 0.57
U96C U102C U119A | 0
U20A A69G A78U U96C A138U | 0.05
U20C U23C A24G G53U | 0.67
A69G U130C A136U | 0.61
A42G A67G U73C A140U | 0.77
U20A U62C A129G | 0
U13C G135A A136G | 1.78
A31G C84U U104C C113U | 0.09
U13A U62C A121U | 0.05
G21A U45C U52A A94U U115C A141G | 0.16
U9C U14A A69G C71U U115A C120U | 0.16
A79G U104C C116A U130A | 2.08
U9A U39C A59G | 0.21
U13C U45C U119C C123A A124G A138G | 0.65
U20C U45C U47C U62C | 0
U39C A77C G80U | 0.99
U13A U14C A22U A107G | 0.48

Variant | self-cleavage
A6C U12A U23A U26C U130A A136G A142G | 0
U47C A67G A138G | 1.53
A42G U62C U100C | 0.58
A30U A64G U115C | 0.36
U12G U20A U47A U62A A141G | 0.04
U14A C18U U39C U45C A57G U143A | 0.62
U1C U12C A59G A92U C113A | 0
U12G U14C A43G U46C U91A | 0
A50U C63U A129G | 0.31
U39C U112C G114A A138U | 1.84
U15C U29C A117U G127U | 0.92
G25A U52C A65G A69G | 0.29
A6G A69G U85C U96A | 0.28
U29C A43G U52C | 1.53
U1A A22G A94G C99U U100C | 0.46
A43G A65G U112A | 0
A50G C120U A136G A141G | 1.35
A57U U102A A129G A142G | 0.08
A43G A69G U132C | 0.57
A6G U112C A124U A136G | 1.84
U9C A24G U130C | 0.98

Variant | self-cleavage
U1G A50U U87A A117U A140G | 0.11
G25U A31U U45C | 1.4
U26A A42U A69G | 0.44
U13C U85C A141G | 0.28
G70U U100C A107G | 0.06
A2G A42U C56G U62C A67G C113U | 0.55
A42G A57G U104C C110A | 1.58
A59G A64G U73C G83U U112C C146U | 0.1
G35A A42G U46C C76A | 1.59
G4A A78G A117G | 0.66
U13C G32A A65U A92G A124U U130C A136G | 0
A69G A77G U100C | 0
A79G U87G A92U | 0.05
U13C G54A A67G U112C U119G A141G | 0.27
U1C U13C A50G U143C | 0.49
A65U A79G A124G | 0.07
A43C U45C C103U | 1.05
U13C U26A G72A C146U | 1.16
U91C U104G G114A | 0.67
C28U A43G U46C G54A A94U A136G | 0
G33A U119A G135A | 1.5

Variant | self-cleavage
A94G U108C A141G | 0
A64G A67G A141G | 0
G35A A42G C133A A138U | 1.79
A69G A79G G80A U108C U115C | 0
G32A U39C U73A U100A | 0.43
U12C U13C G53A | 1.82
U26A U62C A69G A140G | 0.05
A77G C90U A129C | 0.09
C3U U29C A65G | 0.25
U5A U15C U91A U104A | 0.33
A78G U115C A140G | 0.74
U1C G21U G33U | 1.07
U46C G114A A117U U130C | 2.08
A6G U13G C84G U87G C128U | 0.24
U26C A67U A107G | 0.06
U87C U134C A142G | 0.33
U20C A57G U81C A107U | 2.12
A43G U52C U143C | 0.92
U102C A138G A142G | 2.65
G25A U109C A129U | 0.9
U14A A117C A124U U132A | 1.21
